Experimental data from patent US6294565A, “Methods of combatting infectious diseases using dicationic bis-benzimidazoles” (University of North Carolina at Chapel Hill, priority 2000, dated 2001).
For some of these results: The name of at least one read-out is uncertain. For at least one compound, name, drawing or mass did not settle the structure.

Columns and labels:
[1] = molecular target: C. neoformans topoisomerase I; assay: C. neoformans topoisomerase I (Table I); assay type: biochemical
[2] = molecular target: C. neoformans topoisomerase II; assay: C. neoformans topoisomerase II (Table I); assay type: biochemical
Calf thymus DNA = assay: DNA binding by change in melting of the DNA bound to the compounds (ΔTm); settings: 259 nm, 18° C./h heating; initial absorbance of 0.3A259
Protocol: DNA binding potency was determined for each of the compounds because previous work had determined that the binding of dicationic molecules to DNA is a prerequisite for their antimicrobial activity. See e.g., Tidwell, R. R., et al., Antimicrob. Agents Chemother. 37, 1713-1716 (1993); Bell, C. A., et al., Antimicrob. Agents Chemother. 35, 1099-1107 (1991). The DNA binding of the compounds was determined by the change in melting of the DNA bound to the compounds. The method is well documented and is a considered a standard method for determining DNA binding strength. See Cory, M. et al., J. Med. Chem. 25, 431-438 (1992). In brief, a UV-visible light spectrophotometer with a cuvette changer was interfaced to a microcomputer that recorded the cuvette temperature and DNA-absorbance data at 259 nm as the sample was heated at a rate of 18° C./h. Calf thymus DNA was used at an initial absorbance of 0.3A259. The midpoint of each denaturation curve was determined after graphic selection on the computer of the starting and ending absorbance temperature for each curve of each experiment. DNA or DNA bound to experimental compound was run in each experiment and the ΔTm s were determined from the polynucleotide TM for that experiment.

Compound | IC50 [1] [µM] | IC50 [2] [µM] | ΔTm DNA binding (Calf thymus DNA) [°C]
N=C(N)c1ccc2nc(-c3ccc(-c4nc5ccc(C(=N)N)cc5[nH]4)[nH]3)[nH]c2c1 [Compound 1, 2,5-bis(5-amidino-2-benzimidazolyl)pyrrole] | 50 to 100 | > 5 | 
c1cc2[nH]c(-c3ccc(-c4nc5cc(C6=NCCN6)ccc5[nH]4)[nH]3)nc2cc1C1=NCCN1 [Compound 2, 2,5-bis-[5-(2-imidazolinyl)-2-benzimidazolyl]pyrrole] | > 100 | < 6.25 | 17.6
c1cc(-c2nc3cc(C4=NCCN4)ccc3[nH]2)nc(-c2nc3cc(C4=NCCN4)ccc3[nH]2)c1 [Compound 3, 2,6-bis[5-(2-imidazolinyl)-2-benzimidazolyl]pyridine] | 250 to 500 | 6.25 | 15.8
Cn1c(-c2nc3ccc(C(=N)N)cc3[nH]2)ccc1-c1nc2ccc(C(=N)N)cc2[nH]1 [Compound 4, 1-Methyl-2,5-bis(5-amidino-2-benzimidazolyl)pyrrole] | 5 to 6 | 1 to 2 | 
Cn1c(-c2nc3cc(C4=NCCN4)ccc3[nH]2)ccc1-c1nc2cc(C3=NCCN3)ccc2[nH]1 [Compound 5] | 25 to 50 | 1.25 | 
N=C(N)c1ccc2[nH]c(-c3cccc(-c4nc5cc(C(=N)N)ccc5[nH]4)n3)nc2c1 [Compound 7, 2,6-bis(5-amidino-2-benzimidazoyl)pyridine] | 125 to 250 | < 62 | 
c1cc(-c2nc3ccc(C4=NCCCN4)cc3[nH]2)nc(-c2nc3ccc(C4=NCCCN4)cc3[nH]2)c1 [Compound 8, 2,6-bis[5-(1,4,5,6-tetrahydro-2-pyrimidinyl)-2-benzimidazolyl]pyridine] | 250 to 500 | 50 to 60 | 
